The whole screen tested about 94,000 compounds, of which about 6,200 (6.6%) were called active. The shares of active, inactive and inconclusive entries below differ from those in the screen. Calls follow the shape of the dose curve; as a rule, active = well fitted inhibition curve with a large enough effect; inconclusive = small, poorly fitted or top-dose-only effect; inactive = flat fitted curve, though single readings scatter. Where the call is inconclusive, the potency comes from a doubtful curve fit.
Assay: Cytotoxic Profiling in HEK 293 Cell Line of Diverse Libraries Using Quantitative High-Throughput Screening; also: nearly all actives have a fitted effect of over 60% in size
Settings: HEK 293 viability, ATP luminescence (CellTiter-Glo), 48-72 h; activity change, negative = cytotoxicity: at 115 µM (top of the series) unless noted; series mostly up to 115 µM
Procedure, shortened: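 Luminescence from cellular ATP, measured with CellTiter-Glo, indicates HEK 293 viability. Cells plated at 250 cells/well are treated with compound for 48 or 72 hr at 37 degree Celsius before reagent addition.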
% is scaled to controls: 0 for no effect and ±100 for the full control effect; potency is read from the fitted curve at half-maximal effect; tags tell the direction and shape of the fitted curve.

Structure (SMILES) | Potency | outcome | activity change, negative = cytotoxicity
O=C(CC(c1ccccc1)c1ccccc1F)N1CCN(c2ccncc2)CC1 (centres undefined) | inconclusive: 50.1 µM [inhibitor, partial curve, poor fit] | – | –
COc1ccc(CC2CCOC3(CCNCC3)C2)cc1 (centres undefined) | inconclusive: 79.4 µM [inhibitor, partial curve, poor fit] | – | –
O=C(Cn1ccn2nc(-c3ccc(F)cc3)c(CO)c2c1=O)N1CCN(c2ccccc2F)CC1 | inconclusive: 39.8 µM [inhibitor, partial curve, poor fit] | – | –
COCc1cc(C[C@@H]2CC[C@H](O)[C@@H](CNCc3ccccc3)O2)no1 | – | inactive [at 172 µM] | –
CN(Cc1ccccc1)C(=O)Cc1ccc(N(Cc2ccccc2)C(=O)c2ccco2)cc1 | inconclusive: 70.8 µM [inhibitor, partial curve, poor fit] | – | –
CN1C[C@@H](NS(=O)(=O)c2ccc(F)cc2)C[C@H]1c1nc(-c2cccnc2)no1 | – | – | inactive: -12.1% [at 172 µM]
Cc1cc(C)cc(-c2ccc(CN3CCCC3C(=O)NCc3ccc(F)cc3)cc2)c1 (centres undefined) | inconclusive: 50.1 µM [inhibitor, partial curve, poor fit] | – | –
COc1cccc(Nc2ncc3c(n2)C(C)(C(=O)Nc2ccc(OC)nc2)CC3)c1 (centres undefined) | active: 89.1 µM | – | –
CC(C)OCCCNC(=O)C1CC(=O)N(c2n[nH]c3cc(Br)ccc23)C1 (centres undefined) | inconclusive: 79.4 µM [inhibitor, partial curve, poor fit] | – | –
CC1CCN(C(=O)c2ccccc2OCC2CCCN(Cc3nccs3)C2)CC1 (centres undefined) | inconclusive: 79.4 µM [inhibitor, partial curve, poor fit] | – | –
Nc1nc2c(s1)C(c1ccc(F)cc1F)CC(=O)N2 (centres undefined) | – | – | inactive: 6.22%
O=C1NC2(CCCN(Cc3ccccc3C(F)(F)F)C2)Oc2ccccc21 (centres undefined) | active: 44.7 µM | – | –
COc1ccccc1Nc1ccnc(N2CCC[C@H]2C(=O)NCc2cccc(Cl)c2)n1 | inconclusive: 50.1 µM [inhibitor, partial curve, poor fit] | – | –
O=C(Cn1nc2c(cc1=O)CCCCC2)NCCc1ccccn1 | – | – | inactive: 7.02%
CCCNC(=O)c1cc2c(s1)CCN(C(C)=O)C2 | – | – | inactive: -6.48%
COc1ccc(-c2onc(C)c2C(=O)NCc2ccccc2C)cc1 | inconclusive: 79.4 µM [inhibitor, partial curve, poor fit] | – | –
COc1ccc(F)cc1-c1ccc(CN2CCC(N[S+](=O)([O-])c3cccc(C(F)(F)F)c3)C2)cc1 (centres undefined) | active: 20 µM | – | –
Cc1ccc(OCC(=O)N2CCC(CC(=O)N(C)Cc3ccccc3)C2)cc1 (centres undefined) | inconclusive: 89.1 µM [inhibitor, single point] | – | –
CN1CCN(C(CN)C2CCCCC2)CC1 (centres undefined) | inconclusive: 126 µM [inhibitor, partial curve, poor fit] | – | –
CCOc1ccc(NC(=O)N2CCc3nc(-c4ccccc4)[nH]c3C2)cc1 | inconclusive: 7.94 µM [inhibitor, full curve] | – | –
Cc1ccc(CN2CCC(N3CC(OCC4CC4)C34CCOCC4)CC2)cc1C (centres undefined) | inconclusive: 50.1 µM [inhibitor, partial curve, poor fit] | – | –
CC(=O)N(C1CCOCC1)C1CCN(S(=O)(=O)c2ccc(Br)cc2)CC1 | – | – | inactive: -14.7%

Structure (SMILES) | Potency | outcome | activity change, negative = cytotoxicity
CC1(C)C(=O)N(CC2CCOCC2)[C@H]2CN(Cc3cccs3)C[C@@H]2[S+]1(=O)[O-] | – | – | inactive: 0.0887% [at 172 µM]
O=C(COc1ccc(NC(=O)C2CC2)cn1)NCc1ccccc1 | – | – | inactive: -0.566%
O=C(N1CCC[C@H]1c1nc(-c2ccccc2Cl)no1)C1(c2ccccc2)CC1 | inconclusive: 56.2 µM [inhibitor, partial curve, poor fit] | – | –
COc1ccccc1-c1nc(N2CCOCC2)cc2c1CN(c1ccccc1)C2=O | inconclusive: 100 µM [inhibitor, partial curve] | – | –
Cc1cc(C)c(NC(=O)Cn2ccn3nc4c(c3c2=O)CCCC4)c(C)c1 | inconclusive: 56.2 µM [inhibitor, partial curve, poor fit] | – | –
COc1cc(CNC(=O)c2c(C)noc2-c2ccc(C(C)(C)C)cc2)cc(OC)c1 | inconclusive: 79.4 µM [inhibitor, partial curve] | – | –
O=C1NCc2ccccc2CC12CCN(Cc1cccc(OC(F)(F)F)c1)C2 (centres undefined) | inconclusive: 50.1 µM [inhibitor, partial curve, poor fit] | – | –
Cc1ccc(-n2nc3n(c2=O)CCN([S+](C)(=O)[O-])C3)cc1 | – | – | inactive: -3.45% [at 172 µM]
Cn1ncc2c(C(=O)Nc3cccc(Cl)c3)cc(-c3ccc(C(F)(F)F)cc3)nc21 | inconclusive: 14.1 µM [inhibitor, full curve, poor fit] | – | –
COc1ccc(OC)c(S(=O)(=O)N2CCCC(Cn3c(C)nc4cccnc43)C2)c1 (centres undefined) | inconclusive: 39.8 µM [inhibitor, partial curve] | – | –
CCOC(=O)C1CCCN(C(=O)C2CCc3nnc(C4CCN([S+](=O)([O-])c5ccccc5Cl)CC4)n32)C1 (centres undefined) | – | inactive | –
COc1ccc(-c2cc(N3CCCN(C(=O)C4(c5ccc(OC)cc5)CC4)CC3)n[nH]2)cc1 | active: 44.7 µM | – | –
Cc1cn2nc(C(=O)NC(C)c3ccc(F)cc3)cc2c(N2CCCC2)n1 (centres undefined) | inconclusive: 89.1 µM [inhibitor, single point] | – | –
CCc1nc2c(c(-c3ccc(O)cc3)n1)CN(Cc1cccn1C)CC2 | inconclusive: 112 µM [inhibitor, partial curve] | – | –
c1cc(CN2CC[C@H]3CNC[C@H]32)cc(OCCCCN2CCCCC2)c1 | inconclusive: 89.1 µM [inhibitor, single point] | – | –
COc1cccc(NC(=O)NC[C@@H]2C=C(C)[C@H](CC(=O)N3CCOCC3)C[C@H]2C(C)C)c1 | – | – | inactive: -16.1%
Cc1nn(-c2ccccc2)c2c1C(C)N(CC1CN(C(=O)c3ccc(C(F)(F)F)cc3)C1)C2=O (centres undefined) | – | – | inactive: -29.2%
Cc1cccc(C2c3cc(OCc4nc(C(=O)NC(C)C)co4)ccc3CCN2C(=O)C2CC2)c1 (centres undefined) | active: 17.8 µM | – | –
O=C(C1CCCN1C(=O)c1ccccc1)N1CCC(N2CCCC2=O)CC1 (centres undefined) | – | – | inactive: 3.65%
Cc1ccc(CN2CC(Oc3ccccc3C(=O)NC3CC3)C2)cc1 | inconclusive: 56.2 µM [inhibitor, partial curve, poor fit] | – | –
Cc1cc2nc3n(c(=O)c2n1CC(=O)N1CCCc2ccccc21)CCCCC3 | inconclusive: 89.1 µM [inhibitor, single point] | – | –
C=CCO[C@@H]1CCN2C(=O)c3cc(-c4ccccc4)ccc3NC(=O)[C@H]12 | – | – | inactive: -25.8% [at 172 µM]

Structure (SMILES) | Potency | outcome | activity change, negative = cytotoxicity
COc1cccc(CNC(=O)[C@@H]2C[C@@H](O)CN2C2CCN(C(=O)Cc3ccc(Cl)cc3)CC2)c1 | – | – | inactive: -24.2%
CCC1(C(=O)Nc2cccc(OC)c2)CCCCC(=O)N1 (centres undefined) | inconclusive: 100 µM [inhibitor, single point] | – | –
COc1cccc(CN2Cc3cc(NC(=O)c4cccc(F)c4)ccc3OC(C)C2=O)c1 (centres undefined) | inconclusive: 50.1 µM [inhibitor, partial curve, poor fit] | – | –
CN1c2cc(C(=O)NCc3cccc(Cl)c3)ccc2C(=O)N2CCCCCC21 (centres undefined) | inconclusive: 50.1 µM [inhibitor, partial curve, poor fit] | – | –
COc1ccccc1C1CCCN1Cc1cn(CCC(N)=O)c2ccccc12 (centres undefined) | inconclusive: 44.7 µM [inhibitor, partial curve, poor fit] | – | –
O=C(NCC1CC1)C1(CCO)CCN(c2ncccn2)C1 (centres undefined) | – | inactive | –
Cc1noc(C)c1CN1CCNc2cnc(OCc3cccnc3)cc2C1 | inconclusive: 79.4 µM [inhibitor, partial curve] | – | –
O=C1COc2ccc(Nc3ccc(Cl)cc3)nc2CN1Cc1nc2ccccc2s1 | active: 31.6 µM | – | –
CCc1cccc(OCC(=O)c2ccc3c(c2)N(CCCC(=O)NCC2CC2)C(=O)CO3)c1 | inconclusive: 50.1 µM [inhibitor, partial curve, poor fit] | – | –
Cc1cc(C)c(CNC(=O)c2nc(-c3cccc(C(F)(F)F)c3)cc3[nH]ccc23)c(=O)[nH]1 | active: 39.8 µM | – | –
CN(C)C(=O)N1CCCCC(NC2CCN(c3ccc4c(c3)CCC4)CC2)C1 (centres undefined) | inconclusive: 56.2 µM [inhibitor, partial curve, poor fit] | – | –
COc1ccc(C(=O)N2CCC3(CC2)NCCc2c3[nH]c3ccccc23)cn1 | inconclusive: 50.1 µM [inhibitor, partial curve, poor fit] | – | –
Cc1cccc(-c2noc(CCC(=O)N[C@H]3CC[C@H]3NC3CCCC3)n2)c1 | inconclusive: 89.1 µM [inhibitor, single point] | – | –
Cc1nnc(CCNC(=O)[C@H]2CNC[C@@H](C(=O)N3CCCC3)C2)s1 | – | – | inactive: -0.251%
Cc1ccc(C(=O)N2CC3(Cc4ccccc4NC3=O)C2)cc1 | inconclusive: 112 µM [inhibitor, single point] | – | –
OC[C@@H]1CNC[C@H]1C1CCN(Cc2ccc(F)c(Br)c2)CC1 | inconclusive: 50.1 µM [inhibitor, partial curve, poor fit] | – | –
CC(=O)N1CCCN(C(=O)c2ccc3c(c2)NC(C)(COc2cccnc2)CO3)CC1 (centres undefined) | inconclusive: 63.1 µM [inhibitor, partial curve, poor fit] | – | –
Cc1ccc2cc(CN3C[C@@H](CO)[C@H](c4nc(C)no4)C3)c(=O)[nH]c2c1 | inconclusive: 22.4 µM [inhibitor, full curve, poor fit] | – | –
COc1ccc(-c2nc3cc(C(=O)NC4CCCCCC4)ccc3o2)cn1 | inconclusive: 126 µM [inhibitor, partial curve, poor fit] | – | –
Cc1ccc(C(=O)N2CCC3(C2)C(=O)N(C)c2ccccc23)cc1 (centres undefined) | inconclusive: 126 µM [inhibitor, partial curve, poor fit] | – | –
